Experimental data as given in US20240270806A1 (Chugai, published 2024).

Target: Human IL-12 receptor (human IL-12Rb1 and IL-12Rb2) (human, UniProt P42701 24-662; Q99665 24-862)
Assay: cell-based or functional assay

B1: Bivalent IL-12 fusion FP5 (other)
heavy: QVQLVQSGAEVKKPGASVKVSCKASGYTFTDYYLHWVRQAPGQGLEWMGWIDPENGDTEYAPKFQGRVTMTTDTSTSTAYMELRSLRSDDTAVYYCNANKELRYFDVWGQGTMVTVSSTSTSGRSANPRGASTKGPSVFPLAPSSKSTSGGTAALGCLVKDYFPEPVTVSWNSGALTSGVHTFPAVLQSSGLYSLSSVVTVPSSSLGTQTYICNVNHKPSNTKVDKRVGGGGSGGGGS[human IgG1 Fc with changes cut from this listing]GSGGSGGSGGSGGSGGSIWELKKDVYVVELDWYPDAPGEMVVLTCDTPEEDGITWTLDQSSEVLGSGKTLTIQVKEFGDAGQYTCHKGGEVLSHSLLLLHKKEDGIWSTDILKDQKEPKNKTFLRCEAKNYSGRFTCWWLTTISTDLTFSVKSSRGSSDPQGVTCGAATLSAERVRGDNKEYEYSVECQEDSACPAAEESLPIEVMVDAVHKLKYENYTSSFFIRDIIKPDPPKNLQLKPLKNSRQVEVSWEYPDTWSTPHSYFSLTFCVQVQGKSKREKKDRVFTDKTSATVICRKNASISVRAQDRYYSSSWSEWASVPCSGGGGSGGGGSGGGGSGGGGSRNLPVATPDPGMFPCLHHSQNLLRAVSNMLQKARQTLEFYPCTSEEIDHEDITKDKTSTVEACLPLELTKNESCLNSRETSFITNGSCLASRKTSFMMALCLSSIYEDLKMYQVEFKTMNAKLLMDPKRQIFLDQNMLAVIDELMQALNFNSETVPQKSSLEEPDFYKTKIKLCILLHAFRIRAVTIDRVMSYLNAS
light: EIVMTQSPATLSVSPGERATLSCRASQSISINLHWYQQKPGQAPRLLIYFASQSISGIPARFSGSGSGTEFTLTISSLQSEDFAVYYCQQSNSFPLTFGGGTKVEIKRTVAAPSVFIFPPSDEQLKSGTASVVCLLNNFYPREAKVQWKVDNALQSGNSQESVTEQDSKDSTYSLSSTLTLSKADYEKHKVYACEVTHQGLSSPVTKSFNRGEC
EC50 (read off the curve), IL-12 luciferase reporter assay (+ MTSP1) [right graph]: ~0.2 nM
